Assay results taken from the supplement of paper PMC10320760.
This is a noisy data set.

B1: Ydj1; a variant is named by its letters at X, in order (parent)
chain: MVKETKFYDILGVPVTATDVEIKKAYRKCALKYHPDKNPSEEAAEKFKEASAAYEILSDPEKRDIYDQFGEDGLSGAGGAGGFPGGGFGFGDDIFSQFFGAGGAQRPRGPQRGKDIKHEISASLEELYKGRTAKLALNKQILCKECEGRGGKKGAVKKCTSCNGQGIKFVTRQMGPMIQRFQTECDVCHGTGDIIDPKDRCKSCNGKKVENERKILEVHVEPGMKDGQRIVFKGEADQAPDVIPGDVVFIVSERPHKSFKRDGDDLVYEAEIDLLTAIAGGEFALEHVSGDWLKVGIVPGEVIAPGMRKVIEGKGMPIPKYGGYGNLIIKFTIKFPENHFTSEENLKKLEEILPPRIVPAIPKKATVDECVLADFDPAKYNRTRASRGGANYDSDEEEQGGEGVQCXXX

Variants of: B1
Assay: enrichment factor, frequency at 37 °C / frequency at 25 °C (thermotolerance selection) (ratio); higher = more growth at 37 °C, higher likelihood of farnesylation
Details: with Saccharomyces cerevisiae ydj1Δ (yWS304); selective temperature 37 °C; reference temperature 25 °C

| Variant | enrichment factor |
| --- | --- |
| YTD | 0.752 |
| YTH | 5.6 |
| YTP | 1.21 |
| YTL | 2.27 |
| YTM | 1.42 |
| YTN | 3.85 |
| YTA | 5.21 |
| YTI | 2.52 |
| YTG | 2 |
| YTE | 0.397 |
| YTQ | 2.96 |
| YTF | 0.886 |
| YTK | 0.172 |
| YTC | 2.93 |
| STG | 1.97 |
| STM | 1.79 |
| STD | 1.34 |
| STP | 0.104 |
| STE | 0.806 |
| STA | 1.75 |
| STF | 1.64 |
| STQ | 1.76 |
| STN | 1.95 |
| STI | 1.76 |

| Variant | enrichment factor |
| --- | --- |
| STH | 2.52 |
| STK | 0.167 |
| STC | 2.27 |
| STL | 1.83 |
| CSV | 0.695 |
| CSW | 0.655 |
| CSY | 0.947 |
| SSV | 2.17 |
| SSW | 1.48 |
| SSY | 2.68 |
| MTA | 1.73 |
| MTD | 1.09 |
| MTN | 1.59 |
| MTF | 1.04 |
| MTK | 0.178 |
| MTP | 0.147 |
| MTC | 1.41 |
| MTH | 1.88 |
| MTI | 2.75 |
| MTM | 3.67 |
| MTQ | 1.65 |
| MTG | 1.63 |
| MTL | 1.95 |
| MTE | 1.11 |

| Variant | enrichment factor |
| --- | --- |
| NTF | 1.81 |
| NTC | 1.72 |
| NTK | 0.111 |
| NTM | 1.9 |
| NTA | 1.62 |
| NTP | 0.159 |
| NTN | 1.43 |
| NTH | 1.22 |
| NTI | 1.75 |
| NTE | 0.582 |
| NTL | 2.23 |
| NTQ | 1.44 |
| NTG | 1.9 |
| NTD | 1.07 |
| PTL | 1.46 |
| PTN | 1.63 |
| PTH | 1.66 |
| PTC | 1.49 |
| PTQ | 1.33 |
| PTM | 1.34 |
| PTI | 1.72 |
| PTA | 1.73 |
| PTE | 1.65 |
| PTP | 0.0911 |

| Variant | enrichment factor |
| --- | --- |
| PTD | 1.66 |
| PTK | 0.686 |
| PTG | 1.78 |
| PTF | 1.54 |
| LSY | 1.23 |
| LSW | 1.52 |
| GSY | 1.07 |
| GSW | 0.802 |
| FSW | 1.22 |
| FSY | 1.32 |
| HSY | 2.19 |
| HSW | 0.965 |
| TTE | 1.8 |
| TTL | 1.98 |
| TTM | 2.26 |
| TTH | 2.07 |
| TTG | 1.84 |
| TTN | 1.44 |
| TTI | 1.98 |
| TTQ | 1.54 |
| TTF | 2.32 |
| TTP | 0.0943 |
| TTC | 1.61 |
| TTK | 0.703 |

| Variant | enrichment factor |
| --- | --- |
| TTD | 1.4 |
| TTA | 2.09 |
| VSW | 1.59 |
| VSV | 1.99 |
| VSY | 3.08 |
| ISW | 1.3 |
| ISY | 1.51 |
| NSY | 1.8 |
| NSW | 1.68 |
| HTE | 0.834 |
| HTL | 1.86 |
| HTP | 0.358 |
| HTF | 8.45 |
| HTH | 2.75 |
| HTM | 2.86 |
| HTA | 2.16 |
| HTN | 2 |
| HTI | 2.7 |
| HTD | 1.71 |
| HTG | 2.02 |
| HTQ | 1.86 |
| HTR | 0.157 |
| HTK | 0.158 |
| HTC | 3.86 |

| Variant | enrichment factor |
| --- | --- |
| WTM | 1.16 |
| WTC | 1.27 |
| WTQ | 1.52 |
| WTK | 1.32 |
| WTA | 1.83 |
| WTI | 2.03 |
| WTH | 1.49 |
| WTG | 1.07 |
| WTL | 1.52 |
| WTE | 1.49 |
| WTP | 0.828 |
| WTN | 2.52 |
| WTD | 1.17 |
| WTF | 0.975 |
| YSV | 1.88 |
| YSY | 1.76 |
| YSW | 1.26 |
| PSY | 2 |
| PSW | 1.53 |
| ITP | 0.125 |
| ITE | 1.03 |
| ITN | 1.48 |
| ITC | 1.2 |
| ITQ | 1.22 |

| Variant | enrichment factor |
| --- | --- |
| ITR | 0.198 |
| ITG | 1.02 |
| ITF | 1.55 |
| ITL | 1.21 |
| ITM | 1.28 |
| ITH | 1.4 |
| ITK | 1.37 |
| ITI | 1.87 |
| ITD | 1.13 |
| ITA | 0.95 |
| WSV | 1.32 |
| WSW | 1.69 |
| WSY | 1.03 |
| ATL | 2.12 |
| ATA | 1.98 |
| ATP | 0.225 |
| ATE | 1.33 |
| ATQ | 1.42 |
| ATC | 1.41 |
| ATG | 1.99 |
| ATR | 0.206 |
| ATD | 1.19 |
| ATK | 1.22 |
